Test results from the supplement of paper PMC4604168 (melanoma cell lines).
The list shows a part of the results. Single values are uncertain, as repeats are few or missing.

Assays:
Test in all cases: cell count relative to DMSO control; melanoma cells; higher = more viable cells
Details in all cases: library dose: low library concentration; 72 h
[1] = tested on: MZ2-MEL
[2] = tested on: MeWo
[3] = tested on: RPMI7951
[4] = tested on: RVH-421
[5] = tested on: SkMel28
[6] = tested on: SkMel2
[7] = tested on: SkMel30
[8] = tested on: SkMel5
[9] = tested on: UACC257
[10] = tested on: UACC62
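Note: cell number obtained by counting DAPI-stained nuclei in high-throughput microscope images with image analysis software, screen run in 1,536-well plates.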

SMILES | cell count [1] [%] | cell count [2] [%] | cell count [3] [%] | cell count [4] [%] | cell count [5] [%] | cell count [6] [%] | cell count [7] [%] | cell count [8] [%] | cell count [9] [%] | cell count [10] [%]
OCc1c[nH]c2ccccc12 [Indole-3-carbinol] + COc1ccc(COc2ccc(Cc3cnc(N)nc3N)cc2OC)cc1 [GW2580] (first compound 0.8 µM, partner dose 1 µM) | 95.5 | 103 | 99.4 | 91.2 | 106 | 97.1 | 101 | 98.9 | 112 | 112
OCc1c[nH]c2ccccc12 [Indole-3-carbinol] + O=c1cc(-c2cccc3c2Sc2ccccc2S3)oc(N2CCOCC2)c1 [KU55933] (first compound 0.8 µM, partner dose 1 µM) | 103 | 102 | 108 | 144 | 94 | 105 | 89.9 | 112 | 101 | 116
COCC[n+]1c2c(n(Cc3cnccn3)c1C)C(=O)c1ccccc1C2=O + O=C(O)c1ccc(-c2c[nH]c3ncc(-c4ccccc4)cc23)cc1C1CCCC1 [GSK650394] (first compound 0.0004 µM, partner dose 0.16 µM) | 41.3 | 84.3 | 82.2 | 96.9 | 82.2 | 86.7 | 83.8 | 62.2 | 64.6 | 90
Clc1ccc(Nc2nnc(Cc3ccncc3)c3ccccc23)cc1 [vatalanib] + Cc1ccc(NC(=O)c2cccc(N(C)C)c2)cc1NC(=O)c1ccc(O)cc1 [ZM336372] (first compound 2 µM, partner dose 2 µM) | 76.2 | 96.4 | 100 | 98.1 | 93.5 | 97 | 83.6 | 91.2 | 120 | 95.9
Clc1ccc(Nc2nnc(Cc3ccncc3)c3ccccc23)cc1 [vatalanib] + COc1ccc(-c2ccc3c(N4CCOCC4)nc(N4C[C@@H](C)O[C@@H](C)C4)nc3n2)cc1CO [KU0063794] (first compound 2 µM, partner dose 0.02 µM) | 99.9 | 86.9 | 103 | 111 | 81.7 | 103 | 116 | 89.8 | 91.8 | 88.5
C#Cc1cccc(Nc2ncnc3cc(OCCOC)c(OCCOC)cc23)c1 [erlotinib] + O=C(O)c1ccc(-c2c[nH]c3ncc(-c4ccccc4)cc23)cc1C1CCCC1 [GSK650394] (first compound 0.8 µM, partner dose 0.16 µM) | 86.7 | 85.2 | 107 | 113 | 90.9 | 86.9 | 85.4 | 86 | 74.2 | 93.1
OCc1c[nH]c2ccccc12 [Indole-3-carbinol] + COC(=O)c1sccc1S(=O)(=O)Nc1ccc(Nc2ccccc2)cc1OC [GSK0660] (first compound 0.8 µM, partner dose 1 µM) | 111 | 117 | 119 | 128 | 109 | 107 | 108 | 109 | 86.1 | 91.3
COCC[n+]1c2c(n(Cc3cnccn3)c1C)C(=O)c1ccccc1C2=O + COc1cc2c(Oc3ccc4[nH]c(C)cc4c3F)ncnc2cc1OCCCN1CCCC1 [cediranib] (first compound 0.0004 µM, partner dose 0.4 µM) | 57.2 | 82.1 | 95.5 | 97 | 101 | 81.3 | 96 | 52.2 | 78.4 | 78.5
OCc1c[nH]c2ccccc12 [Indole-3-carbinol] + COc1cc(Nc2ncc(F)c(Nc3ccc4c(n3)NC(=O)C(C)(C)O4)n2)cc(OC)c1OC [Tamatinib] (first compound 0.8 µM, partner dose 0.4 µM) | 84.6 | 90.5 | 88.1 | 94.5 | 89.7 | 93.6 | 86.8 | 88.8 | 74.5 | 81.5
Nc1cccc2c1CN(C1CCC(=O)NC1=O)C2=O (stereo not given) [lenalidomide] + C=CCn1c(=O)c2cnc(Nc3ccc(N4CCN(C)CC4)cc3)nc2n1-c1cccc(C(C)(C)O)n1 [MK1775] (first compound 1 µM, partner dose 0.02 µM) | 102 | 91.6 | 106 | 112 | 86.8 | 94.2 | 103 | 102 | 94.6 | 96.7
O=C(CCCCCCC(=O)Nc1ccccc1)NO [vorinostat] + COc1cc2c(Oc3ccc4[nH]c(C)cc4c3F)ncnc2cc1OCCCN1CCCC1 [cediranib] (first compound 0.08 µM, partner dose 0.4 µM) | 102 | 90.7 | 92.2 | 99.9 | 89.9 | 96.1 | 102 | 98.8 | 98.2 | 89.1
